Series [1] deals with T. brucei brucei parasites (Lister 427 strain). The series is described as follows: Dose response growth inhibition assay (resazurin, 72 h). As to conditions: Trypanosoma brucei, read-out: Tbb pEC50 (converted). The format is cell-based. On the procedure: Greiner sterile black clear bottom 384-well assay plates were pre-dispensing with 200 nL of compound in each well, from master plates at 1 mM (100% DMSO) containing selection from the GSK compound collection. Controls of 0% response (control 1, 200 nL of 100%DMSO) and 100% response (control 2, 200 nL of 1 mM pentamidine) were included in each assay plate in columns 6 and 18, respectively. Plates containing 200 nL of 100% DMSO were included randomly in the assay, to assess quality through all process. […] After this period, 10 µL of 200 µM resazurin solution in prewarmed HMI-9 were added to each well, and plates were allowed to incubate 2 hours more prior fluorescence reading in a Wallac EnVision Multilabel Plate Reader (Perkin-Elmer). Raw fluorescent data from the Envision plate reader were uploaded into GSK HTS database (ActivityBase). Activity of each well was normalized as a percentage of inhibition per-plate basis using the following equation: [drawing 1]
For dose-response experiments, serial compound dilutions of selected hits from the primary campaign were plotted against compound concentration. Dose response master plates were prepared by 3-fold dilutions (starting with 10 mM DMSO stock solutions), providing 11 concentrations. From these master plates, 200 nL per well was stamped in final assay plates, including the same controls describe in the primary single shot assay. […]
(In general: Resazurin is reduced to fluorescent resorufin, in cell work by metabolically active cells.)

The nature of series [2]: ChromlogD assay. On the procedure:
The Chromatographic Hydrophobicity Index (CHI)[22] values were measured using reversed phase HPLC column (Luna C18 (2), Phenomenex, UK) with a fast acetonitrile gradient at starting mobile phase of pH = 7.4. CHI values are derived directly from the gradient retention times by using a calibration line obtained for standard compounds. The CHI value approximates to the volume % organic concentration when the compound elutes. […] The average error of the assay is ±3 CHI unit or ±0.25 ChromlogD.

The nature of series [3]: CLND kinetic solubility assay. The format is physicochemical. As to conditions: pH 7.4, aqueous buffer, kinetic from dmso stock, Measured, read-out: Aq Sol. On the procedure:
5 µL of 10 mM DMSO stock solution was diluted to 100 µL with pH 7.4 phosphate buffered saline, equilibrated for 1 hour at room temperature, filtered through Millipore MultiscreenHTS-PCF filter plates (MSSL BPC). The filtrate was quantified by suitably calibrated flow injection Chemi-Luminescent Nitrogen Detection.

Series [4] concerns the target T1, Human Serum Albumin (HSA) (Homo sapiens, UniProt P02768).
T1 construct: purchased Chiral Technologies, France
The series can be described thus: Protein binding assay (HPLC stationary phase), HSA. Type of series: in vitro ADME. As to conditions: Measured. The method, then: Chemically bonded Human Serum Albumin (HSA) and Alpha-1-acidglycoprotein HPLC stationary phases (Chiral Technologies, France) were used for measuring compounds' binding to plasma proteins, applying linear gradient elution up to 30% iso-propanol. The run time was 6 min, including the re-equilibration of the stationary phases with the 50 mM pH7.4 ammonium acetate buffer. The obtained gradient retention times were standardised using a calibration set of mixtures as described in the references. The average standard error of the assay depends on the binding strength and kinetics of the compounds.

The target in series [5] is Cytochrome P450 (CYP450) (Homo sapiens, UniProt P08684). The series can be described thus: Cytochrome P450 inhibition profile. The format is in vitro ADME. As to conditions: Measured. The method, then:
The P450 inhibition profile of the inhibitors was determined as previously described.

For series [6], the system named is HepG2 cells. The series is described as follows: Cytotoxicity assay (Cell Titer Glo, 48 h). As to conditions: HepG2 cytotoxicity. The method, then: This assay was used as selectivity assay, and selected hits from the primary were test in dose response concentration against HepG2 in order to identify the level of host cell cytotoxicity. Dose response starting at 10 mM and with 3-fold dilutions for 11 points, were made in 1,536-well master plates. 50 nL per well from them were stamped in final assay plates. The human biological samples were sourced ethically and their research use was in accord with the terms of informed consent.
Cell density was adjusted to 60,000 cells/mL as working concentration in prewarmed Eagle's MEM medium. Seeding density was be checked to ensure that new monolayers are not more than ∼ 50% confluent at the time of seeding (typically 3,000 cells per well), before completing preparation of plates. […] Viability was determined by Cell Titer Glo Kit (Promega) according to manufacturer's instructions: briefly, reconstituted Cell Titer Buffer was equilibrated to room temperature prior its use and 5 µL per well were dispensed with a Multidrop Combi Reagent Dispenser. Contents were mixed on a plate orbital shaker and incubated for 10 min at room temperature, to allow the signal to stabilize before luminescence reading on ViewLux Plate Reader (Perkin-Elmer).
Raw Luminescence data from the ViewLux reader were uploaded into GSK HTS database (ActivityBase). […]
(ATP-based viability assays read luminescence as a measure of living cells.)

Three molecules from article PMC4207660, “Identification and Characterization of Hundreds of Potent and Selective Inhibitors of Trypanosoma brucei Growth from a Kinase-Targeted Library Screening Campaign” (PLoS Neglected Tropical Diseases, 2014) can be followed below.

In brackets after ≈: the same amount, converted by molar mass. Like-named read-outs stand apart in the source and are kept apart here.

For the molecule `Cn1c(=O)n(-c2ccc(C(C)(C)C#N)cc2)c2c3cc(-c4cnc(N)c(N)c4)ccc3ncc21` [NEU-0001217], the EC50 in series [1] (T. b. brucei growth inhibition) was 0.00631 µM.
In turn, `O=C(Nc1n[nH]c2nnc(-c3cccnc3)cc12)C1CC1` [NEU-0001228] gave a PFI in series [2] of 4.64. Also, the solubility kinetic at 1 h in series [3] (phosphate buffered saline) was found to be 58 µM (≈ 16.3 µg/mL). The HSA % binding in series [4] is given as 68.79%. Also, the IC50 was 100 µM in series [5] (CYP3A4, VG substrate, read-out: CYP3A4VG pXC50 (converted)) and 25.1 µM in series [5] (CYP3A4, VR substrate, read-out: CYP3A4VR pXC50 (converted)).
Regarding `CCn1c(-c2nonc2N)nc2cncc(C(=O)N3CC[C@H](N)C3)c21` [NEU-0001883], the EC50 in series [1] was 0.794 µM. Moreover, the “HepG2 pTC50” value in series [6] is <4. Besides, in series [3], the solubility kinetic at 1 h is ≥ 226 µM.
